Measurements taken from the supplement of paper PMC3334620.
Over roughly 33,000 sequences, “E-score (-0.5 to 0.5)” has its median near -0.056; the highest 2% begin near 0.38. Some of the results follow.

Each sequence was assayed against Stb4 (UniProt P50104) (assay: PBM E-score (8-mer binding enrichment) (E-score (-0.5 to 0.5)); higher = stronger / more preferred TF binding; most listed sequences are background and not binding sites). Conditions: protein concentration: 200 nM; construct: GST-DNA-binding domain.
Summary of the method: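 Universal all-10-mer Agilent arrays, double-stranded by primer extension on fresh or once-stripped slides, were probed with about 100-200 nM GST-tagged yeast transcription factors made by PURExpress. Fluorescent anti-GST detected bound protein, and masliner normalised the scans. E-scores from the Universal PBM Analysis Suite were given to each ungapped eight-base word pooled with its reverse complement.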

Sequence	PBM E-score
ATATATAA	0.0369
ATGTCTCA	-0.214
CCCGTATA	0.136
TTCCCGAA	0.46
TCCTACGA	-0.157
AGTGGGGA	-0.168
AAGCTCTC	0.091
CCGAATAG	0.37
ACCTAGGC	-0.0147
CATCAGTC	-0.0805
ACGTGGAT	-0.0782
ACGCAGTG	-0.077
ACCCCAAC	-0.189
ACTCTGCT	0.051
CCACACTC	-0.083
ATGCGAGC	-0.123
ATACAAAA	-0.107
ACACTTTC	0.144
GCACGTAC	-0.00875
CTCTAAGC	0.0612
GCTGTGTA	-0.172
ACAAAGAC	0.0337
CATAGGGA	-0.208
CCCCCTCA	-0.334
ACAATATA	0.167

Sequence	PBM E-score
CTATGCAA	-0.205
CTCCAGTA	-0.0933
CGCTCCTC	-0.166
TAACCAGA	-0.0403
ACTGCCAT	-0.221
ATGTACAA	-0.0734
ACGGTACC	0.28
ACATTATC	0.115
CTAGGCAG	-0.169
AATTCCTA	-0.269
GAGTCACA	-0.116
ACATGGAA	0.0488
ACACCGGT	0.109
CCACAACA	-0.257
CGACCAGC	0.115
AGTCATAC	-0.0938
ACCCTACG	-0.0606
ACCGGGAT	0.321
CGTTCCGA	0.451
GCACATCC	0.162
ATCCTCTC	-0.212
GGGAGGCA	-0.00345
GTCGCAAA	-0.0522
CGTACCCC	0.0659
ACAAAGAT	-0.16

Sequence	PBM E-score
AGGCTGTA	-0.108
AACCTTTG	-0.0665
GGTTAACC	0.125
AAGCGTCA	-0.291
GGCCGCCC	-0.0496
CGATTCCA	0.0252
AACATTCC	0.187
CGAGGTTC	0.234
AGGTTACC	0.209
ATGAAACC	-0.0214
AGTCCCAA	-0.0575
CGGAGTTC	0.283
AATTGTGA	-0.134
CCATAACA	-0.0542
AGTCTTAA	-0.25
ATTGGGTC	-0.0344
GTTGAGTA	-0.0078
CTAGCTAA	-0.117
ACCGCTCG	0.13
ATTTCTAA	0.0106
CCCAGAAC	-0.216
AGCGCGAC	-0.151
AATCCTAC	-0.0751
ATTCGGCA	0.438
CATCAAGC	-0.12

Sequence	PBM E-score
AGTCCAGC	-0.158
ATGAGCTA	-0.119
AAGCTGTG	-0.129
GGGATTTA	0.202
GTTAAATA	0.0514
ACCATCAT	-0.0709
GAACGGCA	0.213
CAGCACGA	-0.156
CACGTAAC	-0.12
GCCGCTAC	0.117
AGTATGTG	0.0678
TGTGAGAA	0.0211
ACGGGATC	0.227
TCCACCCA	-0.304
GAGAGTCA	-0.233
ATCAGCTC	-0.0462
ATGTAGTA	-0.0564
GCACTGAA	-0.0543
TAAGTCTA	-0.197
CTAACCCA	-0.157
CTTTAGGA	-0.249
TGTTGAAA	0.00091
CGGCCCCC	0.0071
CACGCGAA	-0.163
AATCTGCA	-0.0706

Sequence	PBM E-score
CACAAGTG	-0.237
ATGATCGG	0.32
ACGGTTAA	0.175
GTGTATGA	-0.184
ATTTATGA	0.116
ATCCTTTA	-0.118
AGAGGTAT	-0.114
TCTTTGAA	-0.15
CACTATCA	-0.0958
GAACAAAA	0.117
AACCAAAA	0.0853
CAGTTCAA	-0.0612
ACCCAGGA	-0.104
ATTTCTAG	0.0233
CCCACATA	-0.162
CCAGCACA	-0.124
CGCTCCGC	0.0183
TAGGCTAA	-0.161
GTAGTGAA	-0.0707
TCGTATCA	-0.0551
GAGCGCAA	-0.169
GCGGGTTA	0.154
CCGCGAGA	0.00202
CGAGTCAC	0.0132
CGTTTGAC	0.0315

Sequence	PBM E-score
AAATTATC	0.0765
GACGTAAC	-0.0191
AGATTGAC	-0.0764
GTGTAGGA	0.08
GAAGGATA	0.00639
ACAGGCGC	-0.205
AGCAGAAG	-0.115
AATGAGTG	0.0515
ATGCGGTC	0.0867
CTGATCGC	-0.228
CCATGCGA	-0.0784
CCCGCCCC	0.357
ATCACTAA	0.00784
AAGAATCC	0.102
CCTGCTAG	-0.26
AAGGATGC	0.0597
AGGCATTC	-0.155
ACATCTCG	0.189
GACGCAAA	0.0375
GCTGACTA	-0.206
ACTATGCA	-0.0883
TAGCTTAA	-0.236
GAAGCGCC	0.153
TAATATAA	0.0826
ACGCCCAC	-0.181

Sequence	PBM E-score
GGACTACC	0.132
AAGATGTG	-0.156
TTAGACAA	-0.0136
GGCGTCTA	-0.0613
GGTTGTGA	0.0633
AAGAAAAA	0.0247
ATGACCTG	-0.139
GCGCTGAA	0.0058
CCTCAATA	-0.13
CTACTGAG	-0.0265
TCCAAAGA	-0.153
ATTACTGA	-0.346
ACGCACCG	0.0906
CGTTGCGA	-0.101
GAGTACCA	0.0236
TATCGTGA	-0.162
AAACACCT	-0.0219
AGGTGTAC	-0.191
AGTTCCAT	-0.0691
AATCCAAT	0.00508
GCCATAAA	-0.0329
GGTAAACC	0.0527
GATGGATA	0.0447
ACCTTACT	0.0318
TAAGGCGA	-0.103

Sequence	PBM E-score
AACAGAGT	-0.126
GTACGTAA	-0.119
AATGCGAA	0.0466
CCCAAGAA	0.0234
GTTATAAC	0.0904
ATAACTCG	0.175
AGCGCGCA	0.0388
AATCCCTC	-0.0127
CGAGCTTC	0.246
CATTTGCA	-0.11
AAGTTGAA	-0.0617
CCATACTC	0.027
ATGTCTCG	0.139
AGAACCTA	-0.177
ACCATCTA	-0.0705
GCCTATGA	-0.191
AGTTCAAG	-0.0337
GTCACGCA	-0.139
ACCACCGG	0.221
CACCACTC	0.0997
ACTCACTC	-0.0472
CAGCAAGC	-0.175
AATTGAAC	-0.0663
GAGCCCCA	-0.0528
AGCGGCAA	0.0896

Sequence	PBM E-score
ACTATAGA	-0.143
CCATACAG	-0.242
ACCCCTGG	-0.0589
AATCCGGT	0.246
CAGGGGAC	-0.0799
CGATGGCG	0.118
TATCTGCA	-0.273
ACCTCCCG	0.259
AAATTCTT	-0.152
TACAAGGA	0.0789
GGCTCCTA	-0.101
CTTCACCC	0.127
CTGTAAGC	-0.0275
CAAGATCG	0.0793
CTGTGGAA	0.0525
GGTGCATA	0.0207
CACTGGGC	-0.0958
GCTAATCC	0.119
ATGTAATA	0.0534
GCGGACCA	0.0609
TTGAGAAA	-0.263
CTTGAACA	-0.151
CAAGAGCC	0.0369
AAGCCGGA	0.355
AACGTCGC	-0.129

Sequence	PBM E-score
ATTGGCAG	-0.138
CAGCAAAG	-0.158
TATCTTGA	-0.172
ACGCTGCC	0.0694
GTCTCGAA	-0.255
AGTCTCTC	-0.0527
AAACAATA	0.106
GTTACGAA	0.00692
ACGTGCAA	-0.00192
GAAACCAC	-0.143
CAGCCCGC	-0.0714
CAAACACG	-0.0796
GACTAGAC	-0.264
GCCGTTCC	0.251
TGCGCTAA	-0.124
GGTAACAC	0.0631
CAGTGGTC	-0.00329
CCGGTGCG	0.213
GGTCCTGA	-0.0152
CAGTCACG	-0.091
CCTTATAC	-0.195
CCTGGTAG	-0.0625
CACACGCA	-0.161
CACACCGG	0.116
CCTAAGCC	-0.0686

Sequence	PBM E-score
CAAACCAG	-0.234
CCCGAACC	0.414
ACAGCTTG	-0.24
ACTCCACT	-0.273
CTGCCAGA	-0.112
TAATGCGA	-0.116
CTTTCACC	0.0158
CGCAGCTA	-0.117
ATATACCG	0.285
AGTACACC	-0.105
CTGCTGGC	-0.12
AAATATTT	-0.0922
ACCGTCCG	0.306
CCACTCTA	-0.211
GACACTCA	-0.0571
AATTTTCA	-0.101
AAGCCCAT	-0.167
AACATCAT	-0.244
AAGGCCAA	-0.173
AGACCTAT	-0.0162
CCTATTGA	-0.076
CTTACTAA	-0.176
GATGAGAC	-0.0117
CGGGTCAG	0.307
CGCGAAAG	-0.185

Sequence	PBM E-score
CTGCCTTC	-0.148
GCTCACCC	0.0535
ACAATCAT	0.0445
AAGCGAAG	-0.0993
ATGTCTTG	0.097
AGTGAATG	0.0927
TACGATCA	-0.0761
GCGCAAGA	-0.036
ATAGCGCA	-0.283
CGTGTATA	-0.0661
CATCCAGC	-0.0946
CCATGGCC	-0.199
AGGCGTCC	-0.031
GGCGGAAC	0.356
AACAAAAG	-0.145
GAGCTAGA	-0.245
GACTCTTA	-0.0225
CCCTGAAC	0.0103
CTCTGAGA	-0.24
ATTCATAG	-0.243
CAATTGGC	-0.333
CCGGAGCA	0.324
ACCGAACA	0.313
GCTTGTAC	0.122
AGCTCTGC	-0.239

Sequence	PBM E-score
TGTACAAA	-0.0897
AGAGTTAG	-0.0199
CTGTATAA	-0.161
AGCTTGCG	-0.13
AATGTAGA	-0.118
GACATAGA	-0.141
TACCGCCA	0.0746
CTCAAAAG	-0.188
CGTATGCC	0.0723
TCCATTAA	-0.0401
GCGCCAGA	-0.145
GTATCCAC	-0.0779
TTAGCAAA	-0.0159
AAAGTGCG	0.049
CTGAGAAG	-0.133
ATTGCCCA	-0.184
ACTAACCC	-0.05
GACGGAGA	0.187
AGTCATCG	0.0193
TCGTGTAA	0.109
AAATTAAT	-0.0543
TGACGCCA	-0.15
GCCTTAGA	-0.0921
CCTACACC	-0.11
CATATGGA	-0.178

Sequence	PBM E-score
GAGCCGAC	0.296
CGCCTATA	0.0945
CGGCAGAA	0.315
GGTCACGA	-0.207
TGGAACCA	0.0635
CAAGGTGA	-0.153
ATAACCGA	0.388
GCAGTGCC	-0.0171
ATATGTCA	-0.067
AGATTCCT	-0.216
GCCTATAC	-0.132
AAACGATT	-0.137
CAGCGAGG	-0.219
GCATCTGA	-0.0869
CAAGTAAG	-0.26
ACGAACCA	-0.151
CCATTTGC	-0.0898
ATAGCCAT	-0.0728
AGTTGGGA	-0.101
